Data from PubChem BioAssay AID686978 (National Center for Advancing Translational Sciences (NCATS), 2013).
Where “and” joins values, the source holds several entries; their conditions need not be identical. Identical values can stand only once. Out of some 420,000 compounds screened, about 64,000 (15%) were called active. Inconclusive means that the source gave no clear call. Such entries were picked first, then a sample of the others. Calls come from the whole dose curve; as a rule, active = well fitted inhibition curve with a large enough effect; inconclusive = small, poorly fitted or top-dose-only effect; inactive = flat fitted curve, though single readings scatter. Where the call is inconclusive, the potency comes from a doubtful curve fit.

experiment: qHTS for Inhibitors of human tyrosyl-DNA phosphodiesterase 1 (TDP1): qHTS in cells in absence of CPT; conditions: DT40 Tdp1-/- hTDP1 cells, no CPT, ATP luminescence, 48 h; activity change, negative = growth inhibition: at 46.2 µM (top of the series); note: nearly all actives have a fitted effect of over 55% in size
How it was run: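 DT40 Tdp1-/-;hTDP1 cells, no CPT (DMSO vehicle only), 400 cells/well; compounds pin-transferred; ≥48 hr, 37 °C; CellTiter-Glo 30 min RT dark, luminescence read.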
% is set by controls: 0 for no effect and ±100 for the full control effect; potency is the fitted concentration of half-maximal effect; tags give direction and shape of the fitted curve.

| SMILES | Potency | activity change, negative = growth inhibition |
| --- | --- | --- |
| COc1cc(NC(=O)C(CC(C)C)N2Cc3ccccc3C2=O)cc(OC)c1 (stereo not given) | inconclusive: 18.4 µM [inhibitor, single point] |  |
| NS(=O)(=O)c1ccc(NC(=S)Nc2nn(Cc3ccc(Cl)cc3Cl)cc2Cl)cc1 | inconclusive: 20.6 µM [inhibitor, single point] |  |
| CCO[C@H]1OC(C(=O)N2CCN(Cc3ccc4c(c3)OCO4)CC2)=C[C@@H](c2cn(C(C)=O)c3ccccc23)[C@@H]1CCCO | inconclusive: 29.1 µM [inhibitor, single point] |  |
| O=C(CNC(=O)c1ccc(Cl)cc1Cl)OC1CCCCC1=O (stereo not given) |  | inactive: 12.1% |
| Cc1ccc(C)c(N(C)S(=O)(=O)c2ccc3[nH]cc(C(=O)NCCN4CCOCC4)c(=O)c3c2)c1 | inconclusive: 29.1 µM [inhibitor, partial curve, poor fit] |  |
| CN(Cc1ccccc1)c1ccc(/C=C/c2sc3ccccc3[n+]2C)cc1 | active: 0.112 µM |  |
| Cc1cccc(/C=N/n2c(-c3ccncc3)n[nH]c2=S)c1 | inconclusive: 29.1 µM [inhibitor, single point] |  |
| CCCCNC(=O)[C@@H]1CSC2c3ccccc3C(=O)N21 (stereo not given in full) |  | inactive: -8.59% |
| COc1ccc(NC2CS(=O)(=O)CC2NCc2ccccc2)cc1 (stereo not given) | inconclusive: 20.6 µM [inhibitor, single point] |  |
| c1ccc(COc2ccc(CNCc3cccnc3)cc2)cc1 | inconclusive: 29.1 µM [inhibitor, single point] |  |
| CCOc1cc(C2C3=C(CC(C)(C)CC3=O)Nc3n[nH]c(C)c32)ccc1O (stereo not given) |  | inactive: -24.4% |
| CCCCNC(=O)CCn1nc(-c2ccc(Cl)cc2)c2ccccc2c1=O | inconclusive: 23.1 µM [inhibitor, single point] and inconclusive: 29.1 µM [inhibitor, single point] |  |
| Cc1ccc2nc3c(cc(C(=O)NC4CCS(=O)(=O)C4)n3Cc3ccccc3)c(=O)n2c1 (stereo not given) | inconclusive: 10.3 µM [inhibitor, partial curve, poor fit] |  |
| Cc1c(C(=O)NCc2cccc(F)c2)oc2c1-c1[nH]ncc1CC2 | inconclusive: 29.1 µM [inhibitor, single point] |  |
| CC(Sc1nnc2ccccn12)C(=O)Nc1ccc(N2CCOCC2)cc1 (stereo not given) |  | inactive: -14.5% |
| COc1ccccc1/C=C/C=N/NC(=O)c1ccccn1 |  | inactive: -8.29% |
| O=C(c1ccccc1)n1c2ccccc2c(=O)n1-c1ccccc1CCl | inconclusive: 29.1 µM [inhibitor, single point] |  |
| CC(=O)c1ccc(CCCc2ccc(C(C)=O)cc2)cc1 | inconclusive: 25.9 µM [inhibitor, single point] |  |
| CCOC(=O)NC(=O)c1cn(-c2ccc(OC)cc2)c(=O)[nH]c1=O |  | inactive: 4.01% |
| COc1cccc(C2CC(=O)N3CN(c4ccccc4F)CSC3=C2C#N)c1 (stereo not given) | inconclusive: 29.1 µM [inhibitor, single point] |  |
| O=C(NC(=S)N(CCCCO)C1CCCCC1)c1sc2ccccc2c1Cl | active: 16.4 µM |  |
| COc1cc(CCC(=O)NNC(=O)c2cccc(Cl)c2)cc(OC)c1OC |  | inactive: -3.02% |
| CCCS(=O)(=O)NC(=O)C1(C)CCN(C(=O)c2cccc(C(F)(F)F)c2)C1 (stereo not given) |  | inactive: -0.666% |
| O=C(CSc1ccc(-c2cccnc2)nn1)Nc1ccccc1 |  | inactive: -11.2% |

| SMILES | Potency | activity change, negative = growth inhibition |
| --- | --- | --- |
| COc1ccccc1N1CCN(C2=NS(=O)(=O)c3ccccc32)CC1 | inconclusive: 29.1 µM [inhibitor, single point] |  |
| Cn1c(=O)[nH]c(=O)c2c1nc(CN1CCN(c3ccccc3)CC1)n2Cc1c(F)cccc1Cl | inconclusive: 23.1 µM [inhibitor, single point] |  |
| CC(C)CCNC(=O)c1cc(-c2ccc(Br)s2)nc2ccccc12 | inconclusive: 29.1 µM [inhibitor, single point] |  |
| Cc1noc(C)c1CSCC(=O)Nc1cc(S(=O)(=O)N2CCCCC2)ccc1OC(C)C | active: 23.1 µM |  |
| CCCCn1c(N)c(N(CCOC)C(=O)C(C)N2C(=O)c3ccccc3C2=O)c(=O)[nH]c1=O (stereo not given) |  | inactive: 6.06% |
| C[C@H]1CN([C@@H](C)CO)S(=O)(=O)c2ccc(C#CC3(O)CCCC3)cc2O[C@@H]1CN(C)C(=O)Cc1cccnc1 |  | inactive: -19.1% |
| CC(=O)Oc1ccc(Cn2c(C)c(C(=O)NCc3cccc(C(F)(F)F)c3)sc2=O)cc1 | inconclusive: 23.1 µM [inhibitor, single point] |  |
| COc1ccc(-c2cc(C)no2)cc1S(=O)(=O)N1CCCC(C)C1 (stereo not given) | inconclusive: 25.9 µM [inhibitor, single point] |  |
| Nc1c(Cl)ncnc1N1CCOCC1 |  | inactive: -10.5% |
| CC1CCC(C(=O)NC(C(=O)N2CCc3ccccc3C2)C(C)C)CC1 (stereo not given) | inconclusive: 18.4 µM [inhibitor, partial curve] |  |
| Cc1cc(NC(=O)C2CCC2)n(-c2ccccn2)n1 | inconclusive: 29.1 µM [inhibitor, single point] |  |
| CCOc1ccc(S(=O)(=O)Nc2cccc(C(=O)NCCCN3CCCC3=O)c2)cc1 |  | inactive: -25.8% |
| CC(C)(C)c1ccc(C(=O)Nc2ccc(NC(=O)c3ccc(Cl)c(Cl)c3)cc2)cc1 | active: 14.6 µM |  |
| Cc1[nH]c2c(C)cccc2c1CN1CCC(CO)(Cc2ccccc2)CC1 | inconclusive: 16.4 µM [inhibitor, partial curve] |  |
| CCN(CC)c1ccc(C(=O)N/N=C/c2ccc(N3CCOCC3)cc2)cc1 |  | inactive: 6.01% |
| CC(NC(=O)COC(=O)c1c[nH]c2ccccc12)c1ccccc1 (stereo not given) | inconclusive: 23.1 µM [inhibitor, single point] |  |
| COc1cc(C2=NOC(C(=O)Nc3ccc(C)cc3)C2)cc(OC)c1OC (stereo not given) | active: 11.2 µM |  |
| COC(=O)C(C)n1cnc2c(cnn2-c2ccc(Cl)cc2)c1=O (stereo not given) | inconclusive: 4.11 µM [inhibitor, full curve, poor fit] |  |
| CCOc1ccccc1N(CC(=O)N/N=C/c1cc(Br)ccc1OC)S(C)(=O)=O | inconclusive: 29.1 µM [inhibitor, single point] |  |
| CC1(C(=O)NCc2ccccc2Br)CCN1Cc1ccc2ccccc2c1 (stereo not given) | inconclusive: 29.1 µM [inhibitor, single point] |  |
| Clc1ccccc1COc1ccc(/C=N/n2cnnc2)cc1 | inconclusive: 16.4 µM [inhibitor, single point] |  |
| CCCCn1nnnc1C(c1ccccc1)N1CCN(c2ccc(F)cc2)CC1 (stereo not given) | inconclusive: 29.1 µM [inhibitor, single point] |  |
| CCC(C)(C)NC(=O)C(c1ccncc1)N(C(=O)c1sc(C)nc1C)c1ccc(C)cc1 (stereo not given) | inconclusive: 29.1 µM [inhibitor, single point] |  |
| Cc1ccc(S(=O)(=O)N(C)C)cc1NC(=O)c1ccccc1Br |  | inactive: -10.6% |

| SMILES | Potency | activity change, negative = growth inhibition |
| --- | --- | --- |
| CCn1c(CNC(=O)COc2ccc(C(C)C)cc2)nnc1SCC(=O)Nc1ccccc1C(C)C | active: 16.4 µM |  |
| Cc1ccc(S(=O)(=O)Nc2cc(-c3nn(C)c(=O)c4ccccc34)ccc2N2CCOCC2)cc1 | inconclusive: 29.1 µM [inhibitor, single point] |  |
| CCOc1cccc(NC(=O)Cn2nc(-c3ccc4c(c3)OCCO4)ccc2=O)c1 | inconclusive: 16.4 µM [inhibitor, single point] |  |
| CCOC(=O)CSc1nc2c(sc(=S)n2-c2ccccc2OC)c(=O)n1Cc1ccco1 |  | inactive: -0.787% |
| Nc1ccc(SC(F)(F)F)cc1C(=O)c1ccccc1 |  | inconclusive: -30.6% [inhibitor] |
| COc1ccc(S(=O)(=O)N2CCC(C(=O)NC3CCCCC3)CC2)cc1OC |  | inactive: -13.6% |
| COc1ccc(NC(=O)CN(C)CC(=O)Nc2ccccc2SC)cc1Cl | inconclusive: 20.6 µM [inhibitor, partial curve, poor fit] |  |
| O=c1cc(CSc2nnc(Nc3ccccc3F)s2)nc2sccn12 | active: 23.1 µM |  |
| COc1ccc(C(=O)N[C@H](C(=O)NCCCn2nc(C)cc2C)C(C)C)cc1 |  | inactive: 1.16% |
| COc1cccc(NC(=O)Nc2ccc3snnc3c2)c1 | inconclusive: 20.6 µM [inhibitor, single point] |  |
| COc1ccc2ccc3cccc[n+]3c2c1 |  | inactive: -4.81% |
| C[C@H]1CN=C(Nc2ccccc2)N1CC1CCCCC1 | inconclusive: 9.2 µM [inhibitor, partial curve] |  |
| CC1CCCN(CCCNC(=O)c2ccc3c(c2)N(Cc2ccc(Cl)cc2)C(=O)c2ccccc2S3(=O)=O)C1 (stereo not given) | inconclusive: 20.6 µM [inhibitor, single point] |  |
| CCc1ccc([C@@H]2CC(=O)[C@@H]3CN(S(=O)(=O)c4ccc(C)cc4)[C@H](c4ccc(Cl)cc4)C[C@@H]3N2S(=O)(=O)c2ccc(C)cc2)cc1 |  | inactive: 8.29% |
| CC(=O)c1c(C)[nH]c(C(=O)OCC(=O)Nc2ccc(Cl)c(S(=O)(=O)N(C)C)c2)c1C | active: 9.2 µM |  |
| CCCN1CNC(=S)N(c2ccccc2C)C1 | inconclusive: 18.4 µM [inhibitor, partial curve] |  |
| Cc1ccccc1C(=O)Nc1cccc(OCc2cc(=O)n3cccc(C)c3n2)c1 | inconclusive: 29.1 µM [inhibitor, single point] |  |
| Cc1cc(C)nc(Sc2nc(Cl)nc(N(c3ccccc3)c3ccccc3)n2)n1 | inconclusive: 18.4 µM [inhibitor, single point] |  |
| CCOC(=O)c1cc([N+](=O)[O-])c([N+](=O)[O-])cc1NC(C)=O | active: 0.92 µM |  |
| Cc1ccc(Nc2c(O)nc[nH]c2=O)cc1 |  | inactive: 3.1% |
| CCOC(=O)C1CCN(C(c2ccccn2)c2c(C)[nH]c3ccccc23)CC1 (stereo not given) | active: 16.4 µM |  |
| CCCn1cc(S(=O)(=O)CC(=O)NC2CCCCC2)c2ccccc21 |  | inactive: -21% |
